Reference: the supplement of paper PMC10126150
Sequences with one replicate were seen in a single cluster, so their values are uncertain.

Tested on: ATP
Test: switch fluorescence ratio, 500 uM ATP over buffer (Cy3 cluster intensity, sum of 5 cycles each) (fold (ratio)); higher = stronger signal-on switching upon ATP binding; sequences stand for … in TCGTCGGCAGCGTCAGATGTGTATAAGAGACAGTTTTTTTTTTTTTTTTTTTTTTTTT…TC
Conditions: aptamer strand: ATP DNA aptamer (quencher-CACCTGGGGGAGTATTGCGGAGGAAGG + anchor), 100 nM annealed; ATP concentration: 500 uM; one replicate
In short: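 Clusters with intensities outside 100-1000 RFU were excluded. The remaining Cy3-labelled switching-strand clusters on a modified Illumina MiSeq flow-cell had been annealed to 100 nM quencher-labelled ATP aptamer and imaged in selection buffer, then after 15 min with 500 uM ATP at 22 °C, for five cycles separated by NaOH stripping and re-annealing. The fluorescence ratio, averaged per switch-domain sequence, is each cluster's summed target-cycle Cy3 intensity over its summed buffer-cycle Cy3 intensity.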
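Note: ATP exposure 15 min at 22 °C before imaging.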

Row | Sequence | switch fluorescence ratio
1 | CAATCGGGTT | 0.968
2 | CAATCGTTGC | 1.02
3 | CAATCGTTGT | 1
4 | CAATCTGCG | 1.04
5 | CAATCTTGCA | 1.01
6 | CAATGACGTA | 0.991
7 | CAATGCGGTC | 1.08
8 | CAATGCTTCA | 1.08
9 | CAATGGAGTG | 0.968
10 | CAATGTGATA | 0.944
11 | CAATGTTTT | 1
12 | CAATTAATTG | 0.953
13 | CAATTAGTTA | 0.987
14 | CAATTCAGGC | 0.967
15 | CAATTCTAGC | 1.01
16 | CAATTTCCT | 1.09
17 | CAATTTTGAA | 0.966
18 | CAATTTTTAC | 1.03
19 | CACAAAACTA | 1.13
20 | CACAAACATA | 1.11
21 | CACAAATTAT | 1.01
22 | CACAAGATGC | 1.82
23 | CACAATGCCA | 1.02
24 | CACACCTCTC | 1.07
25 | CACACGATTA | 1.1
26 | CACAGAAGAG | 1.14

Row | Sequence | switch fluorescence ratio
27 | CACAGACCCA | 1.13
28 | CACAGCTCCG | 1.03
29 | CACAGGATAG | 1.06
30 | CACAGTTGGA | 0.984
31 | CACATATAT | 1.06
32 | CACATGATGC | 1.02
33 | CACATTACTT | 1.32
34 | CACATTCCGG | 1.12
35 | CACATTTAGA | 1.01
36 | CACATTTTA | 0.992
37 | CACCAAAACG | 1.06
38 | CACCAAAGAA | 1.06
39 | CACCCAGGAA | 2.15
40 | CACCCGGGGG | 1.1
41 | CACCCGTTTG | 1.01
42 | CACCCTATGC | 1.1
43 | CACCCTTGCT | 1.14
44 | CACCGTACGA | 1.6
45 | CACCGTAGCT | 1.43
46 | CACCGTCTCG | 1.06
47 | CACCGTTAGT | 1.04
48 | CACCTATTTT | 1.11
49 | CACCTCAGTG | 1.12
50 | CACCTTCAGC | 1.29
51 | CACGAAAATA | 1.73
52 | CACGAATCTT | 1.03

Row | Sequence | switch fluorescence ratio
53 | CACGAGACTG | 1.19
54 | CACGAGCCCG | 1.06
55 | CACGAGTCGC | 0.988
56 | CACGATTGGA | 0.974
57 | CACGCGATCA | 1.46
58 | CACGCGTGGG | 0.964
59 | CACGGCTTAC | 2.29
60 | CACGGGACTG | 1.21
61 | CACGGGACTT | 1.29
62 | CACGGGGTAG | 0.993
63 | CACGTCGTGC | 0.971
64 | CACGTGAACA | 1.03
65 | CACGTTAATT | 1.15
66 | CACTAATAAA | 1.02
67 | CACTCCAAAA | 2.1
68 | CACTCCATGG | 1.01
69 | CACTCCTATA | 1.11
70 | CACTCCTTG | 1.03
71 | CACTCGTCTG | 1.01
72 | CACTCTCTCG | 0.995
73 | CACTCTGACC | 1.11
74 | CACTCTGTGG | 1.09
75 | CACTCTTGGG | 0.98
76 | CACTGAATTT | 0.988
77 | CACTGACTC | 1.32
78 | CACTGATCTG | 0.96

Row | Sequence | switch fluorescence ratio
79 | CACTGGTACC | 1.07
80 | CACTGTCACG | 1.25
81 | CACTGTCTCA | 1.04
82 | CACTGTGGAA | 1.02
83 | CACTGTTCGG | 1.04
84 | CACTTATAAG | 1.01
85 | CACTTCAGTA | 1.04
86 | CACTTGAATA | 0.956
87 | CACTTGAGGG | 1.02
88 | CACTTTACT | 1.4
89 | CACTTTCGCT | 1.05
90 | CAGAACGATC | 0.996
91 | CAGAACTAC | 1.11
92 | CAGAACTGGG | 0.983
93 | CAGAAGCATT | 1.29
94 | CAGAAGGGGC | 1.08
95 | CAGAAGTACG | 1.03
96 | CAGACCAAGG | 1.03
97 | CAGACCTCCG | 1.04
98 | CAGACGGAGG | 0.986
99 | CAGACTGACG | 1.01
100 | CAGACTTTAC | 1.24
101 | CAGAGAATGA | 0.994
